Here are results for 167 variants from the RNAGym collection of RNA variant scans (doi:10.7554/elife.90254).

Read counts are not given, so values of variants with three or more changes are uncertain.

First the molecules themselves.
B1: OR4K15 (parent)
chain: GUUAACGGUCAUAGGCCAUGGAAACUAGGAGCACCAUUUCGCUGCCAGUGAAGAAAUGAACAAAGAAAAUCUGGGCCAGGCAGGCAUCAAAAGAAAUAGUCUUGCGCUCAACCAGAAAGUCUGUAAUCAUUUUAAGGGUA

The variants in this data set derive from B1. The experiment in a line: self-cleavage, relative activity (ratio to wild type); higher = more cleavage; in vitro, sequencing; the parent is a self-cleaving ribozyme.
Turning to A56G A60G U108A, the self-cleavage worked out at 0.22.
In the case of A55G U120C U127A it was 1.29; in that of A52G A82G A111G A117G, 0.05; in that of A54G A82G U100C, 1.23.
On to A55G A59G A67G C76A G84C A111G A117G G136U, for which the self-cleavage came to 0.01.
As to A55G A60G A129G, the self-cleavage was 0.63.
Regarding A56G A69G U103C A117G, the self-cleavage is 0.56.
In the case of A55U A67G U122C, the self-cleavage worked out at 1.48.
Regarding A52G C113U U132C, the self-cleavage is 0.
A52G U100C A111U C121U: the self-cleavage was 0.41.
In the case of A56G A67G A78G A89C it was 0.2; in that of A52U A68U U108C, 0.01; in that of A52G U102C U127C, 1.98.
In the case of A55U U57A A67G A68G, the self-cleavage is 0.81.
For the variant A56G A64G A90U, the self-cleavage is 0.83.
As for A52G U87C U100A U127A, the self-cleavage was 0.56.
Turning to A56G A98G U132A, the self-cleavage came out at 0.31.
With A52G G123A U139A, the self-cleavage amounted to 1.23.
In the case of A55G A64G A86G G106U, the self-cleavage was 0.02.
With G53A C76U G137U, the self-cleavage came out at 0.15.
As for A54G U122A U131C, the self-cleavage was found to be 0.95.
In the case of A54G A78C A91G U103C C105U A116G it was 0.02; in that of A54G A78U U87C A117G, 0.09; in that of A55U U87C A114G U122C U133A, 0.03.
As to A56G A89G U108C, the self-cleavage was 0.04.
In the case of A55G U57G A66G U97C U108A G138A it was 0.01; in that of A54G U72A A91G, 0.29.
Take A56G A114U A116G: the self-cleavage was determined as 0.01.
For A56C A96G U103C, the self-cleavage was 1.17.
In the case of A55G A66G A67G it was 0.88; in that of A54G A68G A94G U132C, 2.26.
A55U U70C G119A: the self-cleavage amounted to 0.54.
With A56G A59G A86U A91G A94G the figure was 0.77; with A54U A68G A82G A129G, 0.45.
For A54G A68G A95G A129G, the self-cleavage amounted to 1.45.
For the variant A54G A98U A110G, the self-cleavage is 0.15.
On to A52U U100A U132C, for which the self-cleavage was determined as 0.33.
On to A54G U108C A117G, for which the self-cleavage amounted to 0.
With A54U A66G U70C A118U U127A, the self-cleavage was determined as 0.09.
In the case of A55G A63G C105G A118G it was 0.01; in that of A55G A64G G83U A91G, 0.19.
As for A54G A98G U102C A117G, the self-cleavage is 1.71.
For the variant A54G U72C A114G U131C, the self-cleavage turned out to be 1.88.
With A55G U87C A116G, the self-cleavage amounted to 0.09.
In the case of A55G A90U A135G it was 2.84; in that of A52G A90G U127A, 0.56; in that of A52G U72A A90G U131C, 0.12.
As for A52G C77U A90G A96G, the self-cleavage was 2.37.
As to A52G A94G A96U A111G A118U A135G, the self-cleavage worked out at 0.
With A54G A129U A135G, the self-cleavage was 0.33.
Take A55U A82U A110G: the self-cleavage turned out to be 0.04.
Take A54U C71A A78C: the self-cleavage is 0.15.
Take A56G A69G U100A U132C: the self-cleavage came out at 0.19.
Regarding A54G A90G A118G, the self-cleavage stood at 0.62.
In the case of A55C A78C U120A G137U it was 0.19; in that of A54G A67G G83U A89G U108C A126G, 0.
On to A55U A95G A111U, for which the self-cleavage stood at 0.2.
As for A55G A126G U132C, the self-cleavage is 1.25.
For the variant A52G U70C U122C, the self-cleavage came to 0.62.
For the variant A55G G74A U132C U139C, the self-cleavage turned out to be 0.16.
In the case of A52G U122C A134U A140U it was 0.75; in that of A55G A96G U131C, 1.8; in that of A54U A63G A135C, 2.34.
As to A52G A114G A135G, the self-cleavage stood at 0.34.
As to A52G G53U C105U, the self-cleavage amounted to 0.22.
As to A52U A68U U120C, the self-cleavage is 1.17.
For A55U A116G A140G, the self-cleavage is 0.92.
In the case of A54G U87A U102A it was 1.17.
A56G A62G A96G: the self-cleavage came to 0.82.
In the case of A55G A69G U108C it was 0.04.
Regarding A55C A95G U132C, the self-cleavage is 2.6.
In the case of A54G U70C A98G U108C it was 0.01.
For A56G A92C U102A, the self-cleavage was 0.62.
In the case of A54G A95U A116G it was 0.71.
In the case of A52G U70A U72A A96G it was 0.28.
In the case of A55U A60U A94C, the self-cleavage was found to be 0.44.
On to A54G U57A U130C, for which the self-cleavage came out at 1.12.
A55G A111C A114G: the self-cleavage came out at 0.01.
Consider A55G C76A A117G, for which the self-cleavage worked out at 0.1.
Take A56G A82U C109U G115A: the self-cleavage came to 0.01.
With A55G A62G A116C U131C the figure was 0.16; with A52G A95G G106A, 0.02.
As to A54G A59G A125U A129G, the self-cleavage came to 0.99.
Turning to A54G A67C A68G A95G, the self-cleavage worked out at 2.23.
Consider A55G U70C U133C, for which the self-cleavage was found to be 2.22.
In the case of A55U A67G A114G U132C it was 0.19; in that of A54G A63G C77U U108A, 0.03.
On to A56G A67G C109A, for which the self-cleavage was found to be 0.21.
As for A52G A95G U102C A125G, the self-cleavage was 1.67.
With A54G A69G A89G U97A A98G U131C the figure was 0.89.
In the case of A55G A69U A78U A92G G137C, the self-cleavage came out at 0.45.
With A55U A59G A82G U102C A118G U120C the figure was 0.1; with A54U A66U A96G, 1.74.
Turning to A54G A59G U130C, the self-cleavage came to 0.69.
Consider A56G A63U C76A U102C G106C U130C, for which the self-cleavage was found to be 0.
On to A54U A86G A89G A96G U122A, for which the self-cleavage is 2.16.
For the variant A54G A66G G74C A96U A117G A140G, the self-cleavage turned out to be 0.13.
As for A55G G80U A92G, the self-cleavage is 0.19.
A56G C76U U87C A140G: the self-cleavage is 0.08.
A55C A60G A68G A90G U108C: the self-cleavage amounted to 0.04.
Consider A55G A89G A116G U122A, for which the self-cleavage amounted to 0.21.
Regarding A56G A68G U72A A94G, the self-cleavage is 0.07.
For the variant A52G U103C U130C, the self-cleavage worked out at 0.25.
On to A55G A82U A94G U132C, for which the self-cleavage came out at 0.17.
A54U A62U U72C: the self-cleavage worked out at 0.26.
In the case of A54G A118U U139C, the self-cleavage turned out to be 1.05.
As to A54G A67G U72C A90G A111G A125G, the self-cleavage came to 0.01.
In the case of A52G A78G U131C, the self-cleavage turned out to be 0.38.
With G53A A94G A118G U120C the figure was 0.47.
With A55G U70C U103C A114U, the self-cleavage stood at 0.02.
In the case of A54G A62U A96G A110G C121U it was 0.22; in that of A54G A91G A129G U132A, 0.43; in that of A56G A60G A116G A117G, 0.15.
For the variant A52G A95G A125U, the self-cleavage was found to be 1.65.
For the variant A52G A89U A94U, the self-cleavage came to 1.66.
A54G U103C A135G: the self-cleavage was 0.35.
Regarding A54U C109U A125G, the self-cleavage came to 0.06.
Consider A52G A78G C101U U108C, for which the self-cleavage came out at 0.04.
For A55G A94C A110G A116G, the self-cleavage was 0.03.
In the case of A54G A66G A68G it was 0.91.
With A52U A59G A111G the figure was 0.04; with A54U A90G A114G, 0.25; with A54G A126G U139G, 0.42.
Take A56G A78C A92U U130C: the self-cleavage is 0.38.
In the case of A54G A64U U122G it was 1.99; in that of A54U A68U U87C A135G, 1.25; in that of A55G A62U A64G A126U, 1.42.
On to A52U U57C U97C A98G, for which the self-cleavage was found to be 0.81.
As to A55G U70C A114U A118G, the self-cleavage turned out to be 0.02.
For the variant A55U A62U A63G A135U, the self-cleavage worked out at 0.15.
For A54G A90G A116G, the self-cleavage stood at 0.47.
With A54G A96G U102C A117G the figure was 2.23; with A54G U72A A82G A125G, 0.05.
In the case of A52G U87C U100C A117G, the self-cleavage worked out at 2.69.
In the case of A55G A82G U87A it was 0.42; in that of A56G A59U A62U, 1.37.
In the case of A52G U72C U122C it was 0.15.
Consider A54U U72A A140G, for which the self-cleavage came out at 0.41.
As for A55G A63G A66G U97A U120C, the self-cleavage was found to be 1.68.
With A52G A126G U130C the figure was 1.62; with A52U A92U A129G, 1.2.
With A54G A55G A64G U127C the figure was 1.05.
Take A54U A111G U122C U127C: the self-cleavage amounted to 0.
With A54U A62G U87C U131C the figure was 1.34; with A55G A64G G84U U87C U97C C113U, 0.02.
Consider A52G G74U A95G U131C, for which the self-cleavage stood at 0.04.
As to A55U A62U A68G A82G A110C, the self-cleavage came to 0.08.
For the variant G53A A60G U122C, the self-cleavage was 1.64.
With A55G A90G U102C the figure was 0.62; with A54G U108C U122A, 0.03.
For the variant A52G A114G U131C, the self-cleavage was found to be 0.4.
Turning to A56G A68G U72A A110G, the self-cleavage amounted to 0.09.
In the case of A52U A90G U100C it was 1.13; in that of A54G A68G U131C, 0.92; in that of A52U U97C U108A, 0.
As for A54G A86G A90U A126G, the self-cleavage is 1.05.
With A56G A126G A129G, the self-cleavage worked out at 0.61.
As for A54G A90G U108C A140C, the self-cleavage worked out at 0.05.
As to A54G A56G A89G, the self-cleavage is 2.25.
Consider A56G A60G U87C, for which the self-cleavage is 0.4.
For the variant A54G A62G U87C A118G, the self-cleavage was 1.15.
Turning to A55G A68G U87C, the self-cleavage amounted to 1.53.
With A56G A68C U132C, the self-cleavage came to 1.39.
In the case of A55G U57C U102G it was 0.58; in that of A55G A86U A89G A94G U103A U133C, 0.59.
Regarding A56G A60U U100A U103C, the self-cleavage worked out at 0.16.
With A56G A96G U100C C107U, the self-cleavage was found to be 0.02.
